The values below come from PubChem BioAssay AID463173 (ICCB-Longwood Screening Facility, Harvard Medical School, 2010).

Each structure is given as a SMILES string. Among all 52,000 compounds or so, about 4,300 (8.3%) were called active. Rule as the data show it: active = survival mostly below about 52% (no sharp cut-off); inactive = mostly above about 56%. Some of the results follow.

For the assay, the system named is DeltatarO mutant. Description: growth inhibition of S. aureus wild type versus tarO mutant, primary screen, teichoic acid synthesis inhibitors, RN4220, OD600 (AID 463173). Particulars: OD600, 18 h, active compounds read low, screened at 18.75 µg/mL (by protocol).
As for `CCc1cccc(C)c1NC(=O)CN1CCN(Cc2ccccc2Cl)S1(=O)=O`, the survival is inactive: 126%. In the case of `CCc1ccc(NC(=O)Cn2c(=O)c3cccn3c3ccccc32)cc1`, the survival is inactive: 56%. For `CCC1(C)N=c2c(c(=O)n(C)c(=O)n2C)=NO1` (configuration not stated), the survival was inactive: 99%. Next, `CCN(CC)S(=O)(=O)c1ccc2c(c1)N(CC(=O)N1CCN(c3cccc(C)c3)C(C)C1)C(=O)CO2` (configuration not stated): inactive: 78%. As for `CCN(C(=O)CSc1nc2ccccc2c2nc(CCn3c(C)nc4ccccc43)nn12)c1cccc(C)c1`, the survival was inactive: 80%. With `COc1ccc(-c2csc3nc(-c4ccc(Cl)cc4)oc(=O)c23)cc1`, the survival was inactive: 91%. Regarding `Cc1cccc(NC(=O)CCn2cnnn2)c1`, the survival is inactive: 79%. For `CC(=O)c1ccc(Oc2ncnc3c2oc2ccccc23)cc1`, the survival is inactive: 118%. Next, `O=C(COc1ccc2oc3c(c2c1)CCCC3)Nc1ccccn1`: inactive: 85%; `O=C(COc1ccc2oc3c(c2c1)CCCC3)Nc1cccc(Br)c1`: active: 27%; `COc1ccc(C(=O)c2c(N)c(C(=O)Nc3ccccc3Cl)c3ccccn23)cc1`: inactive: 85%. For `Cc1cc(=O)[nH]c2nnc(SCC(N)=O)n12`, the survival is inactive: 69%. Next, `CCc1ccc(NC(=O)CCc2c(C)nn(-c3ccc(N4CCCC4)nn3)c2C)cc1`: inactive: 87%; `CC(CC(=O)NCc1cccnc1)c1ccccc1` (configuration not stated): inactive: 78%. Consider `Cc1oc2c(c1C(=O)Nc1ccc(OC(F)(F)F)cc1)C1=NCCN1C=N2`, for which the survival was inactive: 80%. For the molecule `COc1ccc(NS(=O)(=O)c2cnc(N)nc2)cc1Cl`, the survival was inactive: 67%. Next, `Oc1ccc2ccccc2c1/C=N/c1nccs1`: inactive: 81%. Take `COc1nc(N)c(C#N)c(-c2ccc(C)cc2)c1C#N`: the survival was inactive: 83%. For the molecule `O=C(O)C1CC=CCC1Cc1ccccc1` (configuration not stated), the survival was inactive: 93%.

`COCCCNC(=O)c1c(NC(=O)Cc2coc3cc(C)ccc23)sc2c1CCCC2`: the survival is inactive: 63%. For `COc1ccc(C(=O)/C=C/c2cn(CC(O)CN3CCCCCC3)c3ccccc23)cc1OC` (configuration not stated) the value was inactive: 80%. Next, `Cc1ccc(-c2noc(-c3ccc(N4CCOCC4)c([N+](=O)[O-])c3)n2)cc1`: inactive: 58%; `COc1ccc(NC(=O)CSc2nc3ccccc3nc2N2CCOCC2)c(OC)c1`: inactive: 76%. `Cc1ccc(C(=O)c2oc3ccccc3c2NC(=O)COc2ccccc2C)cc1`: the survival is inactive: 95%. For `Cc1ccccc1CN1C(=O)c2ccccc2S(=O)c2ccc(C(=O)N3CCOCC3)cc21` (configuration not stated), the survival is inactive: 75%. As to `Cc1ccc(C)c2c(N)c3c(nc12)CCCCC3`, the survival is inactive: 96%. For `O=[N+]([O-])c1cc(-c2nc(-c3ccccc3)no2)ccc1NCc1ccco1`, the survival is inactive: 64%. Next, `CC(=N/Nc1nnc(C)n1N)/C(C)=N/Nc1nnc(C)n1N`: inactive: 75%; `Cn1c(=O)c2cc(C(=O)NCCCN3CCN(c4ccc(F)cc4)CC3)sc2c2ccccc21`: inactive: 70%.

For the molecule `O=C(NCCCc1ccccc1)c1cccs1`, the survival is inactive: 102%. For the molecule `COc1cccc(CN2CCC(C(=O)N3CCCC(C)C3)CC2)c1` (configuration not stated), the survival is inactive: 80%. Take `CC1CCN(C(=O)Cn2cc(SCC(=O)NCc3ccc(F)cc3)c3ccccc32)CC1`: the survival is inactive: 52%. As to `COc1cc(C(=O)NCCc2sc(-c3ccc(C)cc3)nc2C)cc(OC)c1OC`, the survival was inactive: 80%. For the molecule `Cc1nnc(N2C(=O)c3oc4ccccc4c(=O)c3C2c2cccc(OCCC(C)C)c2)s1` (configuration not stated), the survival is inactive: 70%. On to `CCCCc1ccc(C(=O)c2c(N)c(C(=O)Nc3cccc(OC)c3)c3ccccn23)cc1`, for which the survival was inactive: 93%. For `O=C(COc1ccccc1)N(Cc1cccnc1)c1nc2c(F)cc(F)cc2s1`, the survival was inactive: 84%. Consider `CC1CCN(S(=O)(=O)c2ccc3c(c2)N(CC(=O)NCCCOC(C)C)C(=O)CO3)CC1`, for which the survival was inactive: 116%. As to `CCc1ccccc1NC(=O)CN(c1ccccc1OC)S(=O)(=O)c1ccc(C)cc1`, the survival was active: 36%.

Take `COCCNC(=O)Cn1c(-c2cccs2)cc2cc(Cl)ccc21`: the survival was inactive: 115%. Regarding `Cc1ccsc1CN(C(=O)COc1ccccc1Cl)C1CCS(=O)(=O)C1` (configuration not stated), the survival was inactive: 86%. Turning to `Cc1ccc(C2CC(=O)N(Cc3ccc(F)cc3)c3c2c(C)nn3-c2nc(C)cc(C)n2)cc1` (configuration not stated), the survival is inactive: 77%. Next, `COc1ccc(CCNC(=O)CCCn2c(=O)c3ccccc3n(CC(=O)Nc3ccccc3C)c2=O)cc1OC`: inactive: 94%. `Cc1ccccc1CNC(=O)CN1C(=O)CCCc2ccccc21`: the survival is inactive: 62%.

Regarding `Cc1ccc2scc(N3CCCCC3C)c(=O)c2c1` (configuration not stated), the survival was inactive: 71%.

On to `COc1ccc(Cn2c(SCC(=O)N3CCN(c4ccc(F)cc4)CC3)nc3ccccc32)cc1`, for which the survival was active: 47%.

Turning to `O=C(CN1CCN(Cc2ccc(F)cc2)C1=O)NCc1ccc(F)cc1`, the survival was inactive: 77%. `C=CCNC(=O)CN1CCC(n2c(C)nc3cc(C(F)(F)F)ccc32)CC1`: the survival is inactive: 95%.

In the case of `Cc1ccc(NC2(c3ccccc3)C(=O)c3ccccc3C2=O)cc1F`, the survival was active: 58%.

Consider `CCc1ccc(NC(=O)CSc2ccc(-c3sc(-c4ccccc4)nc3C)nn2)cc1`, for which the survival was inactive: 38%. For `Cc1ccccc1C(=O)Nc1cccc(NC(=O)c2ccc(C(C)(C)C)cc2)c1` the value was inactive: 124%. As for `CCN(Cc1ccccc1)c1nc2c(S(=O)(=O)c3ccccc3)nnn2c2ccc(Cl)cc12`, the survival is inactive: 85%.

Regarding `Cc1nn(C(C)C(=O)NCCc2ccccc2)c(=O)c2c1sc1ccccc12` (configuration not stated), the survival is inactive: 95%. Regarding `CCOC(=O)CSc1nc2sc3c(c2c(=O)n1Cc1ccccc1)CC(C(C)C)OC3` (configuration not stated), the survival is inactive: 74%. For the molecule `CCC(C)NC(=O)CCCn1c(=O)c2cccn2c2ccccc21` (configuration not stated), the survival was inactive: 90%.

Consider `COc1ccc(C2C(=O)N(C3CCCCCC3)CC(=O)N2CCc2ccc(Cl)cc2)cc1OC` (configuration not stated), for which the survival was inactive: 84%. As for `COCCNC(=O)CN1C(=O)COc2ccc(S(=O)(=O)N3CCCCCC3)cc21`, the survival is inactive: 87%.

Take `CCC(C(=O)NC1CCCCC1)n1c(SCc2ccccc2F)nc2ccncc21` (configuration not stated): the survival is inactive: 67%. For `c1cnc(N2CCN(c3ncc4c(n3)CCNC4)CC2)nc1`, the survival is inactive: 122%. Turning to `O=C(CN1CCN(c2ccc(F)cc2)CC1)N1CCCC1`, the survival is inactive: 83%. For `COc1ccc(OC)c(-n2nnc(-c3nc(-c4cc(OC)c(OC)c(OC)c4)no3)c2C)c1` the value was inactive: 75%. For `O=c1oc2c3c(ccc2c2ccccc12)OCN(Cc1ccc(Cl)cc1)C3`, the survival is inactive: 66%. Regarding `COc1ccc(-c2nc3ccccc3n3c(-c4ccccc4)c4c(=O)n(C)c(=O)n(C)c4c23)cc1OC`, the survival was inactive: 72%. As for `O=c1cccc2n1CC1CC(C2)N(c2nc(N3CCCCC3)nc(N3CCCCC3)n2)C1` (configuration not stated), the survival is inactive: 74%. In the case of `COc1ccc(OCC2CNC(=O)O2)cc1` (configuration not stated), the survival is inactive: 61%. For the molecule `Cc1ccc(CNC(=O)c2ccc(Cn3c(=O)c4ccccc4n(CC(=O)Nc4c(C)cc(C)cc4C)c3=O)cc2)cc1`, the survival was inactive: 81%. In the case of `O=C(Cc1cccs1)N(c1nnc(-c2ccc(F)cc2)s1)C1CCCC1`, the survival was inactive: 106%. As to `CC(C)(N)COc1nonc1N`, the survival is inactive: 94%. Take `CCOc1ccc2nc(NCCCNC(=O)C3CCCO3)c(C#N)cc2c1` (configuration not stated): the survival was inactive: 83%. Next, `CC(=O)N1CCc2cc(S(=O)(=O)NC(Cc3ccccc3)C(=O)Nc3cc(C)ccc3C)ccc21` (configuration not stated): inactive: 74%. For `CCOc1ccc(C(=O)Nc2ccc3nc(SCC(=O)N4CCc5ccccc54)sc3c2)cc1` the value was inactive: 58%; for `CC1=C(c2ccc(C)cc2)S(=O)(=O)N(Cc2ccc(C(=O)Nc3ccc(C)c(F)c3)cc2)C1=O`, inactive: 62%.

Take `NC(=O)CSc1ncc2c(n1)-c1ccccc1N(Cc1ccc(F)cc1)S2(=O)=O`: the survival was inactive: 94%.

`CN1C(=O)c2ccccc2Sc2ccc(NC(=O)N3CCN(c4ccccc4)CC3)cc21`: the survival is inactive: 93%. Next, `O=C(NCc1ccccc1)c1cccn1-c1nnc(N2CCCC2)s1`: inactive: 55%; `CC(=O)N1c2ccccc2C(C)(c2ccc(C)cc2)CC1(C)C` (configuration not stated): active: -4%. Consider `COc1ccc(N2CCN(C(=O)c3cccc4ccccc34)CC2)cc1`, for which the survival was inactive: 66%. With `COc1cc2c(cc1OC)C(COc1ccc3c(C)cc(=O)oc3c1)N(C(=O)c1ccccc1C)CC2` (configuration not stated), the survival is inactive: 121%. For `COCCn1c(=O)[nH]c2cc(C(=O)N3CCN(c4ccccc4)CC3)ccc2c1=O` the value was inactive: 76%; for `CCOC(=O)C1CCCN(CC(=O)Nc2cc(C)c3c(=O)oc4ccccc4c3n2)C1` (configuration not stated), inactive: 64%; for `O=c1oc2ccc3ccccc3c2cc1-c1nnc(Nc2ccccc2F)s1`, inactive: 74%.

Turning to `CCCSc1nc(-c2ccccc2)[nH]c1S(=O)(=O)c1ccc(C)cc1`, the survival is inactive: 55%.

On to `COc1ccc(-c2n[nH]c3c2cnc2ccc(F)cc23)cc1`, for which the survival was inactive: 135%. For `Cc1ccc(-c2c(C(=O)NCCc3ccccc3)oc(=O)c3ccccc23)cc1` the value was inactive: 91%; for `COc1ccc(-c2cc3ccc(O)c(CN4CCCC4)c3oc2=O)cc1`, inactive: 123%; for `N#C/C(=C\c1ccc(-c2cccc(Cl)c2)o1)C(N)=O`, inactive: 99%.

With `COc1ccc2c(c1)c1c(c(=O)n(Cc3ccccc3)c(=O)n1Cc1cccc(Cl)c1)n2C`, the survival was inactive: 82%. With `COc1ccccc1NC(=O)c1cnc(SCC(=O)N2CCOCC2)n(C)c1=O`, the survival was inactive: 91%.

For `CCn1cc(C(=O)NCCCOC)c(=O)c2cc(S(=O)(=O)N3CCc4ccccc4C3)ccc21`, the survival is inactive: 92%. Consider `Cc1cc(C)c2oc(-c3ccc(Cl)c(NC(=O)c4cccs4)c3)nc2c1`, for which the survival is active: 55%.

On to `COc1ccc(NC(=O)CS(=O)CC(=O)Nc2ccc(NC(C)=O)cc2)cc1` (configuration not stated), for which the survival is inactive: 95%.

Consider `CCc1ccc(NC(=O)C2CCCN2S(=O)(=O)c2ccc3c(c2)CCCC(=O)N3)cc1` (configuration not stated), for which the survival is inactive: 80%. In the case of `COc1ccc(CCNC(=O)c2ccc(Cn3c(=O)c4ccccc4n(Cc4cccc(F)c4)c3=O)cc2)cc1OC`, the survival was inactive: 78%.
